Values joined by “and” are separate entries in the source; they are usually repeats but may differ in a detail not shown here. Equal values may be shown once. In all, about 2,900 compounds were measured (“IRF Lucia reporter activity, fold change vs agonist alone”: median about 0.9, highest 2% from about 2.8 on). Some of the results follow.
Legend:
RAW-Dual [1] = assay: IRF Lucia reporter activity, fold change vs agonist alone; higher = enhanced IRF activity; details: agonist: MPLA (TLR4) […]
Summary of the method: (§1)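 After 50 nL of library stock was delivered by pin tool to RAW-Dual macrophages (50,000 cells/well, DMEM, 384-well plates), a PRR agonist was added 1 h later and the plates were kept at 37 °C, 5% CO2. Twenty hours later, IRF was read from supernatant by QuantiLuc luminescence and NF-κB by QuantiBlue absorbance at 620 nm. Reporter activity is stated as fold change over agonist-alone wells. Wells with IncuCyte confluency under 70% of agonist controls in both mask sets were counted as cytotoxic.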

RAW-Dual [2] = assay: IRF Lucia reporter activity, fold change vs agonist alone; cytotoxicity flag (confluency mask): not cytotoxic; higher = enhanced IRF activity
Summary of the method: as §1

RAW-Dual [3] = assay: IRF Lucia reporter activity, fold change vs agonist alone; cytotoxicity flag (confluency mask): cytotoxic (confluency <70% of control); higher = enhanced IRF activity
Summary of the method: as §1

[4] = library stock concentration (final ~1000-fold dilution): 10 mM, cytotoxicity flag (confluency mask): not cytotoxic
[5] = agonist: 3'3'-cGAMP (STING) 10 ug/mL
[6] = library stock concentration (final ~1000-fold dilution): 10 mM, cytotoxicity flag (confluency mask): cytotoxic (confluency <70% of control)

Question: How did the “IRF Lucia reporter activity” value (RAW-Dual [1]; [4]) turn out when NC(=O)c1ccc(-c2nc(-c3ccc4c(c3)OCO4)c(-c3ccccn3)[nH]2)cc1 was run?
Answer: Its value is 0.99.

Question: Which results are given for NC(=O)c1ccc(-c2nc(-c3ccc4c(c3)OCO4)c(-c3ccccn3)[nH]2)cc1 (library stock concentration (final ~1000-fold dilution): 10 mM)?
Answer: IRF Lucia reporter activity (RAW-Dual [2]; [5]): 0.666; IRF Lucia reporter activity (RAW-Dual [2]; agonist: LPS (TLR4) 0.1 ug/mL): 0.843

Question: Which “IRF Lucia reporter activity” value (RAW-Dual [2]; [5]) does the source give for COCCCOc1cc(CC(CC(N)C(O)CC(C(=O)NCC(C)(C)C(N)=O)C(C)C)C(C)C)ccc1OC (stereo unspecified) (library stock concentration (final ~1000-fold dilution): 10 mM) here?
Answer: Its value is 0.991 and 1.01.

Question: What about the “IRF Lucia reporter activity” value (RAW-Dual [2]; agonist: LPS (TLR4) 0.1 ug/mL) of the same molecule?
Answer: Its value is 0.869 and 1.06.

Question: Which “IRF Lucia reporter activity” value (RAW-Dual [1]; [6]) does the source give for CN(C)C/C=C/C(=O)Nc1cc2c(Nc3ccc(F)c(Cl)c3)ncnc2cc1OC1CCOC1 (stereo unspecified) here?
Answer: The value was 0.0551.

Question: CN(C)C/C=C/C(=O)Nc1cc2c(Nc3ccc(F)c(Cl)c3)ncnc2cc1OC1CCOC1 (stereo unspecified) (library stock concentration (final ~1000-fold dilution): 10 mM) was tested. Which “IRF Lucia reporter activity” value (RAW-Dual [3]; [5]) did it give?
Answer: The value was 0.0236.

Question: What about the “IRF Lucia reporter activity” value (RAW-Dual [3]; agonist: LPS (TLR4) 0.1 ug/mL) of the same molecule?
Answer: The value was 0.032.

Question: COc1ccc(C2Sc3ccccc3N(CCN(C)C)C(=O)C2OC(C)=O)cc1.Cl (stereo unspecified) was tested. Which “IRF Lucia reporter activity” value (RAW-Dual [1]; [4]) did it give?
Answer: Its value is 0.818.

Question: Which results are given for COc1ccc(C2Sc3ccccc3N(CCN(C)C)C(=O)C2OC(C)=O)cc1.Cl (stereo unspecified) (library stock concentration (final ~1000-fold dilution): 10 mM)?
Answer: IRF Lucia reporter activity (RAW-Dual [2]; [5]): 1.01; IRF Lucia reporter activity (RAW-Dual [2]; agonist: LPS (TLR4) 0.1 ug/mL): 1.08

Question: How did the “IRF Lucia reporter activity” value (RAW-Dual [1]; [4]) turn out when CC(C)CC(NC(=O)C(CCc1ccccc1)NC(=O)CN1CCOCC1)C(=O)NC(Cc1ccccc1)C(=O)NC(CC(C)C)C(=O)C1(C)CO1 (stereo unspecified) was run?
Answer: The value was 1.57.

Question: Which “IRF Lucia reporter activity” value (RAW-Dual [2]; [5]) does the source give for CC(C)CC(NC(=O)C(CCc1ccccc1)NC(=O)CN1CCOCC1)C(=O)NC(Cc1ccccc1)C(=O)NC(CC(C)C)C(=O)C1(C)CO1 (stereo unspecified) (library stock concentration (final ~1000-fold dilution): 10 mM) here?
Answer: The value was 1.34.

Question: And the “IRF Lucia reporter activity” value (RAW-Dual [2]; agonist: LPS (TLR4) 0.1 ug/mL)?
Answer: The value was 0.995.

Question: Which results are given for Nc1nc(Cl)nc2c1ncn2C1OC(CO)C(O)C1F (stereo unspecified) (library stock concentration (final ~1000-fold dilution): 10 mM)?
Answer: IRF Lucia reporter activity (RAW-Dual [3]; [5]): 0.753; IRF Lucia reporter activity (RAW-Dual [3]; agonist: LPS (TLR4) 0.1 ug/mL): 1

Question: Nc1nc(Cl)nc2c1ncn2C1OC(CO)C(O)C1F (stereo unspecified) was tested. Which “IRF Lucia reporter activity” value (RAW-Dual [1]; [6]) did it give?
Answer: The value was 0.85.

Question: Which “IRF Lucia reporter activity” value (RAW-Dual [2]; [5]) does the source give for COc1cc(/C=C/C(=O)O)ccc1O (library stock concentration (final ~1000-fold dilution): 10 mM) here?
Answer: Its value is 1.19.

Question: What about the “IRF Lucia reporter activity” value (RAW-Dual [2]; agonist: LPS (TLR4) 0.1 ug/mL) of the same molecule?
Answer: The value was 1.06.

Question: With O=C(NC1CCOCC1)c1ccc(-c2cc(-c3c[nH]nc3-c3ccccn3)ccn2)cc1 as the molecule, how does the “IRF Lucia reporter activity” value (RAW-Dual [1]; [4]) read?
Answer: The value was 0.899.

Question: O=C(NC1CCOCC1)c1ccc(-c2cc(-c3c[nH]nc3-c3ccccn3)ccn2)cc1 (library stock concentration (final ~1000-fold dilution): 10 mM) was tested. Which “IRF Lucia reporter activity” value (RAW-Dual [2]; [5]) did it give?
Answer: Its value is 0.591.

Question: And the “IRF Lucia reporter activity” value (RAW-Dual [2]; agonist: LPS (TLR4) 0.1 ug/mL)?
Answer: The value was 0.823.

Question: What does the source list for CC(C)C(C(=O)O)N1C(=O)/C(=C/c2ccc(Br)cc2)SC1=S (stereo unspecified) (library stock concentration (final ~1000-fold dilution): 10 mM)?
Answer: IRF Lucia reporter activity (RAW-Dual [2]; [5]): 0.747; IRF Lucia reporter activity (RAW-Dual [2]; agonist: LPS (TLR4) 0.1 ug/mL): 1.58

Question: Which results are given for COC1=CC(=O)CC(C)C12Oc1c(Cl)c(OC)cc(OC)c1C2=O (stereo unspecified) (library stock concentration (final ~1000-fold dilution): 10 mM)?
Answer: IRF Lucia reporter activity (RAW-Dual [2]; [5]): 1.74; IRF Lucia reporter activity (RAW-Dual [2]; agonist: LPS (TLR4) 0.1 ug/mL): 1.44

Question: Which “IRF Lucia reporter activity” value (RAW-Dual [1]; [4]) does the source give for COC1=CC(=O)CC(C)C12Oc1c(Cl)c(OC)cc(OC)c1C2=O (stereo unspecified) here?
Answer: The value was 1.39.

Question: For CC(=N)NCc1cccc(CN)c1.Cl.Cl (library stock concentration (final ~1000-fold dilution): 10 mM), which “IRF Lucia reporter activity” value (RAW-Dual [2]; [5]) is on record?
Answer: Its value is 0.906.

Question: What about the “IRF Lucia reporter activity” value (RAW-Dual [2]; agonist: LPS (TLR4) 0.1 ug/mL) of the same molecule?
Answer: Its value is 0.936.

Question: Which results are given for COc1ccc(C=Cc2cc(OC)c(OC)c(OC)c2)cc1OP(=O)(O)O (library stock concentration (final ~1000-fold dilution): 10 mM water)?
Answer: IRF Lucia reporter activity (RAW-Dual [3]; [5]): 0.0698; IRF Lucia reporter activity (RAW-Dual [3]; agonist: LPS (TLR4) 0.1 ug/mL): 1.96

Question: How did the “IRF Lucia reporter activity” value (RAW-Dual [1]; library stock concentration (final ~1000-fold dilution): 10 mM water, cytotoxicity flag (confluency mask): cytotoxic (confluency <70% of control)) turn out when COc1ccc(C=Cc2cc(OC)c(OC)c(OC)c2)cc1OP(=O)(O)O was run?
Answer: Its value is 1.62.

Question: With C=CC1CC1(NC(=O)C1CC2CN1C(=O)C(C(C)(C)C)NC(=O)OC1CC1CCCCCc1nc3ccc(OC)cc3nc1O2)C(=O)NS(=O)(=O)C1CC1 (stereo unspecified) as the molecule, how does the “IRF Lucia reporter activity” value (RAW-Dual [1]; [4]) read?
Answer: Its value is 1.15.

Question: What does the source list for C=CC1CC1(NC(=O)C1CC2CN1C(=O)C(C(C)(C)C)NC(=O)OC1CC1CCCCCc1nc3ccc(OC)cc3nc1O2)C(=O)NS(=O)(=O)C1CC1 (stereo unspecified) (library stock concentration (final ~1000-fold dilution): 10 mM)?
Answer: IRF Lucia reporter activity (RAW-Dual [2]; [5]): 1.09; IRF Lucia reporter activity (RAW-Dual [2]; agonist: LPS (TLR4) 0.1 ug/mL): 1.04

Question: Which results are given for CCN1C(=O)CNc2ncc(-c3ccc(-c4nc[nH]n4)nc3C)nc21 (library stock concentration (final ~1000-fold dilution): 10 mM)?
Answer: IRF Lucia reporter activity (RAW-Dual [2]; [5]): 0.131; IRF Lucia reporter activity (RAW-Dual [2]; agonist: LPS (TLR4) 0.1 ug/mL): 0.555

Question: COc1ccc(CNC(=O)CCl)cc1OC was tested. Which “IRF Lucia reporter activity” value (RAW-Dual [1]; [4]) did it give?
Answer: Its value is 0.949.

Question: For COc1ccc(CNC(=O)CCl)cc1OC (library stock concentration (final ~1000-fold dilution): 10 mM), which “IRF Lucia reporter activity” value (RAW-Dual [2]; [5]) is on record?
Answer: The value was 0.804.

Question: What about the “IRF Lucia reporter activity” value (RAW-Dual [2]; agonist: LPS (TLR4) 0.1 ug/mL) of the same molecule?
Answer: Its value is 1.06.

Question: What does the source list for COc1cc2oc(=O)ccc2c(OC)c1CC(O)C(C)(C)O (stereo unspecified) (library stock concentration (final ~1000-fold dilution): 10 mM)?
Answer: IRF Lucia reporter activity (RAW-Dual [2]; [5]): 1.14; IRF Lucia reporter activity (RAW-Dual [2]; agonist: LPS (TLR4) 0.1 ug/mL): 0.809

Question: For COc1cc(NC(=O)c2ccc(-c3ccc(Cl)cc3)o2)cc(OC)c1 (library stock concentration (final ~1000-fold dilution): 10 mM), which “IRF Lucia reporter activity” value (RAW-Dual [2]; [5]) is on record?
Answer: Its value is 0.692.

Question: What about the “IRF Lucia reporter activity” value (RAW-Dual [2]; agonist: LPS (TLR4) 0.1 ug/mL) of the same molecule?
Answer: The value was 1.01.

Question: For COc1cc(NC(=O)c2ccc(-c3ccc(Cl)cc3)o2)cc(OC)c1, which “IRF Lucia reporter activity” value (RAW-Dual [1]; [4]) is on record?
Answer: Its value is 0.886.

Question: For Cl.Cl.OC(CN1CCN(c2cccc(Cl)c2)CC1)C(c1ccccc1)c1ccccc1 (stereo unspecified) (library stock concentration (final ~1000-fold dilution): 10 mM), which “IRF Lucia reporter activity” value (RAW-Dual [2]; [5]) is on record?
Answer: Its value is 0.634.

Question: What about the “IRF Lucia reporter activity” value (RAW-Dual [2]; agonist: LPS (TLR4) 0.1 ug/mL) of the same molecule?
Answer: The value was 0.943.

Question: For Cl.Cl.OC(CN1CCN(c2cccc(Cl)c2)CC1)C(c1ccccc1)c1ccccc1 (stereo unspecified), which “IRF Lucia reporter activity” value (RAW-Dual [1]; [4]) is on record?
Answer: Its value is 0.984.

Question: For COc1cc2nccc(Oc3ccc(NC(=O)Nc4ccc(F)cc4F)c(F)c3)c2cc1OC, which “IRF Lucia reporter activity” value (RAW-Dual [1]; [6]) is on record?
Answer: Its value is 1.23.

Question: Which results are given for COc1cc2nccc(Oc3ccc(NC(=O)Nc4ccc(F)cc4F)c(F)c3)c2cc1OC (library stock concentration (final ~1000-fold dilution): 10 mM)?
Answer: IRF Lucia reporter activity (RAW-Dual [3]; [5]): 1.02; IRF Lucia reporter activity (RAW-Dual [3]; agonist: LPS (TLR4) 0.1 ug/mL): 0.826

Question: CNC(=C[N+](=O)[O-])NCCSCc1csc(CN(C)C)n1 was tested. Which “IRF Lucia reporter activity” value (RAW-Dual [1]; [4]) did it give?
Answer: The value was 0.93.

Question: CNC(=C[N+](=O)[O-])NCCSCc1csc(CN(C)C)n1 (library stock concentration (final ~1000-fold dilution): 10 mM) was tested. Which “IRF Lucia reporter activity” value (RAW-Dual [2]; [5]) did it give?
Answer: Its value is 1.03.

Question: What about the “IRF Lucia reporter activity” value (RAW-Dual [2]; agonist: LPS (TLR4) 0.1 ug/mL) of the same molecule?
Answer: Its value is 1.02.

Question: For Cc1cc(Nc2cc(Cl)nc(Oc3ccc([N+](=O)[O-])cc3)n2)n[nH]1 (library stock concentration (final ~1000-fold dilution): 10 mM), which “IRF Lucia reporter activity” value (RAW-Dual [2]; [5]) is on record?
Answer: Its value is 0.161.

Question: What about the “IRF Lucia reporter activity” value (RAW-Dual [2]; agonist: LPS (TLR4) 0.1 ug/mL) of the same molecule?
Answer: The value was 1.38.

Source: the supplement of paper PMC10037445
